The list shows a part of the results.
What was measured:
HSkMC = human skeletal muscle cells; test: cytotoxicity call (relative viability < 0.9); settings: 10 µM
HepG2 = test: cytotoxicity call (relative viability < 0.9); settings: 10 µM
S. aureus RN4220 = test: growth inhibition call (relative growth <= 0.2); settings: 50 µM

CC(C)[Si](C#Cc1ccc(Oc2ccccc2)cc1)(O[Si](C#Cc1ccc(Oc2ccccc2)cc1)(C(C)C)C(C)C)C(C)C
cytotoxicity call (HSkMC): inactive | cytotoxicity call (HepG2): inactive | growth inhibition call (S. aureus RN4220): inactive

C=c1cc(C)cc(C)c1=C1NN=C(N)S1
cytotoxicity call (HSkMC): inactive | cytotoxicity call (HepG2): inactive | growth inhibition call (S. aureus RN4220): inactive

CC(C)NC(=O)N(C)C[C@H]1Oc2ccc(NC(=O)Nc3ccc4c(c3)OCO4)cc2CC(=O)N([C@@H](C)CO)C[C@@H]1C
cytotoxicity call (HSkMC): inactive | cytotoxicity call (HepG2): inactive | growth inhibition call (S. aureus RN4220): inactive

COc1ccc(NC(=O)Nc2cccc3c2O[C@H](CN(C)Cc2ccc(-c4ccccc4)cc2)[C@H](C)CN([C@H](C)CO)C3=O)cc1
cytotoxicity call (HSkMC): active | cytotoxicity call (HepG2): active | growth inhibition call (S. aureus RN4220): inactive

C[C@H](NC(=O)C[C@@H]1C=C[C@@H](NC(=O)CN2CCOCC2)[C@H](CO)O1)c1ccccc1
cytotoxicity call (HSkMC): inactive | cytotoxicity call (HepG2): inactive | growth inhibition call (S. aureus RN4220): inactive

C[C@H](CO)N1C[C@H](C)[C@H](CN(C)C(=O)Nc2ccc(C(F)(F)F)cc2)Oc2ccc(NC(=O)Cc3ccccc3)cc2C1=O
cytotoxicity call (HSkMC): inactive | cytotoxicity call (HepG2): active | growth inhibition call (S. aureus RN4220): inactive

C[C@@H]1CN([C@H](C)CO)C(=O)Cc2cc(NC(=O)Cc3ccccc3)ccc2O[C@H]1CN(C)S(=O)(=O)c1cn(C)cn1
cytotoxicity call (HSkMC): inactive | cytotoxicity call (HepG2): inactive | growth inhibition call (S. aureus RN4220): inactive

C[C@@H]1CCCCO[C@@H](CN(C)C(=O)Nc2ccc(F)cc2)[C@H](C)CN([C@@H](C)CO)C(=O)c2cc(NS(=O)(=O)c3ccc(F)cc3)ccc2O1
cytotoxicity call (HSkMC): inactive | cytotoxicity call (HepG2): inactive | growth inhibition call (S. aureus RN4220): inactive

COc1cccc(S(=O)(=O)N(C)C[C@@H]2Oc3ncc(C#CCC(C)C)cc3C(=O)N([C@@H](C)CO)C[C@H]2C)c1
cytotoxicity call (HSkMC): inactive | cytotoxicity call (HepG2): inactive | growth inhibition call (S. aureus RN4220): inactive

COc1ccc(S(=O)(=O)Nc2ccc3c(c2)C(=O)N([C@H](C)CO)C[C@@H](C)[C@@H](CN(C)Cc2ccc(-c4ccccc4)cc2)O3)cc1
cytotoxicity call (HSkMC): active | cytotoxicity call (HepG2): active | growth inhibition call (S. aureus RN4220): inactive

C[C@H]1CN([C@@H](C)CO)C(=O)c2cc(NC(=O)Cn3cnnn3)ccc2O[C@H]1CN(C)Cc1ccc(C(=O)O)cc1
cytotoxicity call (HSkMC): inactive | cytotoxicity call (HepG2): inactive | growth inhibition call (S. aureus RN4220): inactive

COc1ccc(NC(=O)Nc2ccc3c(c2)C(=O)N([C@H](C)CO)C[C@@H](C)[C@H](CN(C)S(=O)(=O)c2c(C)noc2C)OCCCC[C@H](C)O3)cc1
cytotoxicity call (HSkMC): inactive | cytotoxicity call (HepG2): inactive | growth inhibition call (S. aureus RN4220): inactive

COc1cc(OC)c2c(=O)cc(-c3ccccc3)oc2c1
cytotoxicity call (HSkMC): inactive | cytotoxicity call (HepG2): inactive | growth inhibition call (S. aureus RN4220): inactive

COc1cccc(-c2cn(CC[C@H]3CC[C@H](NC(=O)CN(C)C)[C@H](CO)O3)nn2)c1
cytotoxicity call (HSkMC): inactive | cytotoxicity call (HepG2): inactive | growth inhibition call (S. aureus RN4220): inactive

C[C@@H]1CN([C@@H](C)CO)C(=O)CCCn2nncc2CO[C@H]1CN(C)S(=O)(=O)c1ccc(-c2ccccc2)cc1
cytotoxicity call (HSkMC): inactive | cytotoxicity call (HepG2): inactive | growth inhibition call (S. aureus RN4220): inactive

C[C@H](CO)N1C[C@H](C)[C@H](CN(C)C(=O)Nc2ccc3c(c2)OCO3)Oc2ncc(C#CC(C)(C)O)cc2C1=O
cytotoxicity call (HSkMC): inactive | cytotoxicity call (HepG2): inactive | growth inhibition call (S. aureus RN4220): inactive

COc1ccc(NC(=O)N(C)C[C@H]2OCCCC[C@@H](C)Oc3ccc(NS(=O)(=O)c4ccc(F)cc4)cc3C(=O)N([C@H](C)CO)C[C@H]2C)cc1
cytotoxicity call (HSkMC): inactive | cytotoxicity call (HepG2): inactive | growth inhibition call (S. aureus RN4220): inactive

CC1=NN2C(=NN[C@@]2(C)c2ccccc2)NC1=O
cytotoxicity call (HSkMC): inactive | cytotoxicity call (HepG2): inactive | growth inhibition call (S. aureus RN4220): inactive

N[C@H]1CC[C@H](CCn2cc(-c3cccc(F)c3)nn2)O[C@@H]1CO
cytotoxicity call (HSkMC): inactive | cytotoxicity call (HepG2): inactive | growth inhibition call (S. aureus RN4220): inactive

CCCCCN(C)CCC(O)(P(=O)([O-])O)P(=O)(O)O.O.[Na+]
cytotoxicity call (HSkMC): inactive | cytotoxicity call (HepG2): inactive | growth inhibition call (S. aureus RN4220): inactive

COc1ccc(S(=O)(=O)N(C)C[C@H]2Oc3c(NS(=O)(=O)c4ccccc4)cccc3C(=O)N([C@@H](C)CO)C[C@@H]2C)cc1
cytotoxicity call (HSkMC): inactive | cytotoxicity call (HepG2): inactive | growth inhibition call (S. aureus RN4220): inactive

C[C@@H]1CCCCO[C@H](CN(C)C(=O)Cc2ccccc2)[C@@H](C)CN([C@@H](C)CO)C(=O)c2cc(NC(=O)c3ccccc3)ccc2O1
cytotoxicity call (HSkMC): inactive | cytotoxicity call (HepG2): inactive | growth inhibition call (S. aureus RN4220): inactive

c1n[nH]cc1-c1cn[nH]c1
cytotoxicity call (HSkMC): inactive | cytotoxicity call (HepG2): inactive | growth inhibition call (S. aureus RN4220): inactive

O=C(C[C@@H]1CC[C@H]2[C@@H](COC[C@@H](O)CN2S(=O)(=O)c2ccccc2)O1)N1CCOCC1
cytotoxicity call (HSkMC): inactive | cytotoxicity call (HepG2): inactive | growth inhibition call (S. aureus RN4220): inactive

C[C@@H]1CN([C@@H](C)CO)C(=O)c2cccc(NS(=O)(=O)c3ccc(Cl)cc3)c2O[C@H]1CN(C)C(=O)Nc1cccc2ccccc12
cytotoxicity call (HSkMC): inactive | cytotoxicity call (HepG2): inactive | growth inhibition call (S. aureus RN4220): inactive

O=C(NCC1CC1)[C@@H]1[C@@H](CO)[C@@H]2Cn3c(cccc3=O)[C@H]1N2C(=O)c1cccnc1
cytotoxicity call (HSkMC): inactive | cytotoxicity call (HepG2): inactive | growth inhibition call (S. aureus RN4220): inactive
